PubChem BioAssay AID1345083 (National Center for Advancing Translational Sciences (NCATS), 2018)
“And” between values parts separate entries of the source, which are not always exact repeats. Identical values can stand only once. In all, about 94,000 compounds went through this assay and about 6,200 (6.6%) were called active. Inconclusive results, whose numbers are uncertain, are shown with a selection of clear calls. Calls follow the shape of the dose curve; as a rule, active = well fitted inhibition curve with a large enough effect; inconclusive = small, poorly fitted or top-dose-only effect; inactive = flat fitted curve, though single readings scatter. Where the call is inconclusive, the potency comes from a doubtful curve fit.

Test: Cytotoxic Profiling in HEK 293 Cell Line of Diverse Libraries Using Quantitative High-Throughput Screening; also: nearly all actives have a fitted effect of over 60% in size
Conditions: HEK 293 viability, ATP luminescence (CellTiter-Glo), 48-72 h; series mostly up to 115 µM; activity change, negative = cytotoxicity: at the top concentration
From the text: Cell-based phenotypic screening is a commonly used approach to discover biological pathways, novel drug targets, chemical probes and high-quality hit-to-lead molecules. Many hits identified from high-throughput screening campaign are ruled out through a series of follow-up potency, selectivity/specificity, and cytotoxicity assays. Prioritization of molecules with little or no cytotoxicity for a more in-depth downstream evaluation influence the future direction of projects, so cytotoxicity profiling of the screening libraries at early stage is essential for increasing the likelihood of candidate success. In this study, we analyzed results from a cell-based cytotoxicity screening campaign, comprising nearly 10,000 compounds in NCATS annotated libraries, and over 100,000 compounds in a diversity library, evaluated in four normal cell lines (HEK 293, NIH 3T3, CRL-7250 and HaCat) and a cancer cell line (KB 3-1, a HeLa subline) with overall screening outcomes, hit rates, pan-activity and selectivity. For the annotated library, we also examined the primary targets and mechanistic pathways regularly associated with cell death. To our knowledge, this is the first study to use high-throughput screening to profile large libraries for cytotoxicity assessment in both normal and cancer cell lines. In summary, the results generated here constitutes a valuable resource for the scientific community and provides insight on identifying cytotoxic compounds with particular mechanisms of action, and prioritizing compounds with suitable cytotoxicity profile for further evaluation.
HEK 293 cells were seeded into white 1536-well plates using a Multidrop Combi peristaltic dispenser (ThermoFisher, Waltham, MA) at a density of 250 cells/well in 5 uL of medium respectively. A pintool (Kalypsys) was used to transfer 23 nL of compound solution to the 1536-well assay plates. After 48 or 72 hr incubation at 37 degree Celsius, 5% CO2 and 95% humidity, 2.5 uL of CellTiter-Glo (Promega) was dispensed into each well using a dispenser (Aspect Automation, St. Paul, MN) with solenoid valves (Lee Valves, Westbrook CT). Plates were left at room temperature for 10 min before imaging the ATP-coupled luminescence using a ViewLux microplate imager (PerkinElmer, Waltham, MA).
% is scaled to controls: 0 for no effect and ±100 for the full control effect; potency is read from the fitted curve at half-maximal effect; tags tell the direction and shape of the fitted curve.

SMILES | activity change, negative = cytotoxicity | Potency | outcome
CC(C)C(=O)N1CCC2(CC1)NCc1ccccc1-n1ccnc12 | inactive: -12.3% | – | –
CCOC(=O)[C@H]1CN(C(=O)c2ccc3c(c2)OCO3)[C@]2(C)C(=O)N(CC3CC3)c3ccccc3[C@H]12 | – | inconclusive: 15.8 µM [inhibitor, partial curve, poor fit] | –
Cc1nc(-c2ccc(C(F)(F)F)cc2)cc([C@H]2CN3CC[C@H]2C[C@@H]3CNC(=O)C(C)(C)C)n1 | – | active: 39.8 µM | –
CCOC(=O)[C@H]1CN(C(=O)c2ccc(OC)c(OC)c2)[C@]2(C)C(=O)N(CC3CC3)c3ccccc3[C@H]12 | – | inconclusive: 56.2 µM [inhibitor, partial curve, poor fit] | –
Cn1nc(C2CCCCC2)cc1[C@H]1CN2CC[C@H]1C[C@@H]2CNC(=O)c1cccs1 | – | active: 100 µM | –
COc1cc2c(cc1CCc1ccccc1)N(C(=O)Cc1ccc3c(c1)OCO3)CC21CCN(C(C)=O)CC1 | inactive: -24.2% | – | –
O=C1Nc2ccccc2C12CCN(CC1CC1)CC2 | inactive: -6.05% [at 230 µM] | – | –
Cc1nc(-c2ccco2)cc([C@H]2CN3CC[C@H]2C[C@@H]3CNC(=O)C2CCCCC2)n1 | – | inconclusive: 112 µM [inhibitor, partial curve, poor fit] | –
COc1cc2c(cc1OCc1ccccc1)N(C(=O)c1ccccc1OC)CC21CCN(C)CC1 | – | active: 79.4 µM | –
O=C(Nc1ccccc1)[C@H]1CN2CCC1C[C@@H]2Cn1cc(CSc2ccccc2)nn1 (stereo partly specified) | – | active: 100 µM | –
CCn1cc(S(=O)(=O)N2[C@H]3CC[C@@H]2c2cnc(-c4ccc(F)cc4)nc2C3)cn1 | – | inconclusive: 89.1 µM [inhibitor, single point] | –
CN1CCC(NCC2(CO)C[C@@H](O)[C@@H](O)C2)CC1 (stereo partly specified) | inactive: 0.259% [at 172 µM] | – | –
COC[C@H]1CCCN1C[C@H]1CN2CC[C@H]1C[C@@H]2CNC(=O)Nc1ccc(OC)cc1 | inactive: -12.1% [at 172 µM] | – | –
CS(=O)(=O)NC[C@H]1C[C@@H]2CCN1C[C@@H]2CN1C[C@@H]2C[C@H](C1)c1cccc(=O)n1C2 | inactive: -21.8% [at 172 µM] | – | –
COc1cc2c(cc1OCc1ccccc1)N([S+](=O)([O-])c1cccc3cccnc13)CC21CCN(C)CC1 | – | active: 25.1 µM | –
O=C(NC1CCCC1)N1[C@H]2CC[C@@H]1c1cncnc1C2 | – | – | inactive
Cc1nc(-c2ccccc2)cc([C@H]2CN3CC[C@H]2C[C@@H]3CNC(=O)C2CCC2)n1 | – | inconclusive: 100 µM [inhibitor, partial curve, poor fit] | –
O=C1NCCCCCN[C@H]2CCC[C@@H]12 | – | inconclusive: 79.4 µM [inhibitor, partial curve, poor fit] | –
O[C@@H]1CNC2Cc3c([nH]c4ccccc34)C1C2 (stereo partly specified) | – | inconclusive: 89.1 µM [inhibitor, single point] | –
Cc1ccc2c(n1)N(C)[C@H](CO)CCN(CCC(C)C)C2 | – | inconclusive: 126 µM [inhibitor, partial curve, poor fit] | –
COc1cc2c(cc1OCc1ccccc1)NC(=O)C21CCN(c2cnccn2)CC1 | – | active: 63.1 µM | –
COc1cc2c(cc1OCc1ccccc1)NC(=O)C21CCN(Cc2ccncc2)CC1 | – | inconclusive: 44.7 µM [inhibitor, partial curve, poor fit] | –

SMILES | activity change, negative = cytotoxicity | Potency | outcome
Cc1noc(C)c1CCN1CCC2(C1)C(=O)N(C)C(=O)N2C (stereo unspecified) | inactive: 2.75% | – | –
Cc1ccc(CN2CCC3(CCNCC3)C2)c(O)c1 | – | inconclusive: 50.1 µM [inhibitor, partial curve, poor fit] | –
CC(C)NC(=O)NC[C@H]1C[C@@H]2CCN1C[C@@H]2CN(C)Cc1ccccc1 | inactive: -9.66% [at 172 µM] | – | –
Cc1noc(C)c1S(=O)(=O)N1[C@H]2CC[C@@H]1c1cnc(-c3ccc(F)cc3)nc1C2 | – | active: 44.7 µM | –
CCC1(N2CCN(C(=O)COc3ccc(Cl)cc3C)CC2)CCN(C(=O)NC)C1 (stereo unspecified) | – | inconclusive: 50.1 µM [inhibitor, partial curve, poor fit] | –
Cc1nc(-c2ccco2)cc([C@H]2CN3CC[C@H]2C[C@@H]3CNC(=O)c2cccs2)n1 | inactive: -28.7% [at 172 µM] | – | –
COc1ccc(C(=O)NC[C@H]2C[C@@H]3CCN2C[C@@H]3c2cc(C3CCCCC3)nn2C)cc1 | – | inconclusive: 50.1 µM [inhibitor, partial curve, poor fit] | –
C#C[C@H]1CN2CC[C@H]1C[C@@H]2COC(=O)Nc1cc(OC)cc(OC)c1 | – | active: 100 µM | –
Cn1cccc1CN1CCCC2(CC(c3cccnc3)=NO2)C1 (stereo unspecified) | inactive: 1.52% | – | –
Cc1ncc2c(n1)C[C@@H]1CC[C@H]2N1C(=O)c1ccc(C(C)C)cc1 | inactive: -26.5% | – | –
c1cncc(C2=NOC3(CCCN(CC4CCCCC4)C3)C2)c1 (stereo unspecified) | inactive: -7.53% | – | –
O=C(NCc1ccc2c(c1)OCO2)[C@H]1CN2CCC1C[C@@H]2Cn1cc(CC2CCCCC2)nn1 (stereo partly specified) | – | inconclusive: 63.1 µM [inhibitor, partial curve, poor fit] | –
CN(C)c1ccc(C(=O)NC[C@H]2C[C@@H]3CCN2C[C@@H]3CN2CCc3ccccc3C2)cc1 | – | active: 89.1 µM | –
COc1cccc([C@@H]2CCN(Cc3cccc4nsnc34)C[C@H]2O)c1 | – | inconclusive: 56.2 µM [inhibitor, partial curve, poor fit] | –
Cc1noc(C)c1CC(=O)N1[C@H]2CC[C@@H]1c1cnc(-c3ccccc3)nc1C2 | – | inconclusive: 89.1 µM [inhibitor, single point] | –
CCCCN1CCC2(COC(=O)N2c2ccncc2)C1 (stereo unspecified) | – | inconclusive: 112 µM [inhibitor, partial curve, poor fit] | –
COc1ccc(-c2cc3c(cn2)CN(C)CCN3)cn1 | inactive: -23.6% [at 230 µM] | – | –
COc1ccc(-c2cc([C@H]3CN4CC[C@H]3C[C@@H]4CNC(=O)c3cccs3)n(C)n2)cc1OC | – | inconclusive: 89.1 µM [inhibitor, single point] | –
CC(C)c1nccn1C(C)C(=O)N1CCC(C#N)(c2ccccc2)CC1 (stereo unspecified) | – | inconclusive: 56.2 µM [inhibitor, partial curve, poor fit] | –
CCOC(=O)[C@H]1CN(C(=O)/C=C/c2ccccc2)[C@]2(C)C(=O)N(C)c3ccccc3[C@H]12 | – | inconclusive: 39.8 µM [inhibitor, single point] | –
Cc1nc(-c2cccs2)cc([C@H]2CN3CC[C@H]2C[C@@H]3CNC(=O)C2CC2)n1 | inactive: -17.5% [at 172 µM] | – | –
O=C(Nc1ccc2n(c1=O)C[C@H]1C[C@@H]2CN(C2CCOCC2)C1)c1ccccc1 | – | inconclusive: 100 µM [inhibitor, partial curve] | –

SMILES | activity change, negative = cytotoxicity | Potency | outcome
CCN(CC)C[C@H]1CN2CC[C@H]1C[C@@H]2CNC(=O)Nc1cccc(SC)c1 | – | active: 50.1 µM | –
O=C1C[C@@H]2CCN(C3COC3)C[C@@H]2CCN1 | – | – | inactive [at 230 µM]
O=C(Cc1ccc(CO)cc1)N1CCN(Cc2cn[nH]n2)CC(O)C1 (stereo unspecified) | – | – | inactive
O=C1NC2(CCCN(Cc3ccncc3)C2)COc2ccccc21 (stereo unspecified) | – | active: 70.8 µM | –
c1cnc2nc(C3CCNCC3)[nH]c2c1 | – | inconclusive: 141 µM [inhibitor, single point] and inconclusive: 141 µM [inhibitor, partial curve, poor fit] | –
CCC(CC)c1cc([C@H]2CN3CC[C@H]2C[C@@H]3CNC2CCN(C)CC2)nc(-c2ccncc2)n1 | – | active: 14.1 µM | –
COc1cc2c(cc1CCc1ccccc1)N(C(=O)c1ccn(C)n1)CC21CCN(C(C)=O)CC1 | – | inconclusive: 56.2 µM [inhibitor, partial curve, poor fit] | –
COc1cc2c(cc1Oc1ccccc1)NC(=O)C21CCN(Cc2ccccc2)CC1 | – | active: 28.2 µM | –
COCCC(=O)N1CCC2(CC1)c1nccn1-c1ccccc1CN2CC(C)C | – | inconclusive: 79.4 µM [inhibitor, single point] | –
Cc1cc(C)cc(CN2CCC3(CCNCC3)C2)c1 | – | inconclusive: 35.5 µM [inhibitor, partial curve, poor fit] | –
COc1cc2c(cc1OC1CCCC1)NC(=O)C21CCN(C(=O)c2cccc(C#N)c2)CC1 | – | inconclusive: 15.8 µM [inhibitor, full curve, poor fit] | –
CCCS(=O)(=O)NC[C@H]1C[C@@H]2CCN1C[C@@H]2c1cc(-c2ccccc2)nn1C | – | inconclusive: 126 µM [inhibitor, single point] | –
N#CC1(c2ccccc2)CCN(C(=O)c2ccc3nccn3c2)CC1 | inactive: -13.6% | – | –
CC(=O)NCCNC(=O)[C@H]1CN2CCC1C[C@@H]2Cn1cc(-c2ccc(C(C)(C)C)cc2)nn1 (stereo partly specified) | inactive: -3.54% | – | –
Cc1nc(-c2cccs2)cc([C@H]2CN3CC[C@H]2C[C@@H]3CNS(C)(=O)=O)n1 | – | inconclusive: 126 µM [inhibitor, single point] | –
COc1ccc(C2(C(=O)N3[C@H]4CC[C@@H]3c3cnc(C)nc3C4)CCCCC2)cc1 | inactive: -1.81% | – | –
O=C([C@H]1CN2CCC1C[C@@H]2Cn1cc(-c2ccccc2)nn1)N1CCOCC1 (stereo partly specified) | inactive: 0.574% [at 172 µM] | – | –
CCC(CC)c1cc([C@H]2CN3CC[C@H]2C[C@@H]3CNS(=O)(=O)c2ccccc2C#N)nc(-c2ccncc2)n1 | – | inconclusive: 20 µM [inhibitor, full curve, poor fit] | –
O=C(c1ccncc1)N1C2CCC1CN(Cc1cccnc1)C2 | inactive: -21% | – | –
C=C[C@H]1CN2CC[C@H]1C[C@@H]2CNCc1ccc(SC)cc1 | – | active: 89.1 µM | –
CCOC(=O)[C@H]1CN(C(=O)c2cc3ccccc3s2)[C@]2(C)C(=O)Nc3ccccc3[C@H]12 | – | inconclusive: 31.6 µM [inhibitor, partial curve, poor fit] | –
CC(C)CN1Cc2ccccc2-n2ccnc2C12CCN(C(=O)c1ccc(F)cc1)CC2 | – | inconclusive: 56.2 µM [inhibitor, partial curve, poor fit] | –
